# Data taken from PubChem BioAssay (NCI).
# Several values for one entry are separate records, joined by “and”; a condition that tells them apart may be missing. Equal entries are not always repeated.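 Cells were grown in 96-well plates and exposed to each compound for 48 hours at five concentrations; endpoints were interpolated linearly between bracketing concentrations, or set to the highest concentration if not reached. The concentration for 50% growth inhibition is given as GI50. TGI: total growth inhibition.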
# System: NCI-H322M lung
# Assay: inhibition of tumour cell growth, NCI panel, 48 h
SMILES,TGI,GI50
CC(C)=C1C(=O)C[C@]2(C)C/C=C(\C)CC/C=C(\C)CC[C@@H]12,> 50 µM,–
O=C(/C=C/c1ccccc1Cl)c1ccc(O)cc1,31.7 µM,17.4 µM
COc1cc(O)c2c(=O)c3ccccc3n(C)c2c1,> 100 µM,–
Cc1ccc2c(=O)c(-c3nnsn3)c[nH]c2n1,> 100 µM,–
Nc1ccn(C2OC(CO[P+](=O)OC3C(CO[P+](=O)OC4C(CO[P+](=O)OC5C(CO[P+](=O)OC6C(CO[P+](=O)OC7C(CO[P+](=O)OC8C(CO[P+](=O)OC9C(CO[P+](=O)OC%10C(CO[P+](=O)OC%11C(CO)OC(n%12ccc(N)nc%12=O)C%11(F)F)OC(n%11ccc(N)nc%11=O)C%10(F)F)OC(n%10ccc(N)nc%10=O)C9(F)F)OC(n9ccc(N)nc9=O)C8(F)F)OC(n8ccc(N)nc8=O)C7(F)F)OC(n7ccc(N)nc7=O)C6(F)F)OC(n6ccc(N)nc6=O)C5(F)F)OC(n5ccc(N)nc5=O)C4(F)F)OC(n4ccc(N)nc4=O)C3(F)F)C(O)C2(F)F)c(=O)n1 (configuration not stated),> 100 µM,16 µM
O=c1oc2c(Br)c(O)c(Br)cc2c2ccccc12,85.5 µM,–
CCC1(O)C(=O)OCc2c1cc1n(c2=O)Cc2c-1nc1ccccc1c2OC (configuration not stated),2.59 µM,–
Cc1cc(NC(=O)NC(=O)c2ccccc2[N+](=O)[O-])ccc1Oc1ncc(Cl)cn1,32.7 µM,–
O=CC(O)C(O)C(O)COc1cc(CO)cc2c1C(=O)c1ccccc1C2=O (configuration not stated),> 100 µM,–
C/C(=N\N=C(\N)OB(F)F)c1ccccn1,> 100 µM,–
Cc1nc2ccc(N=Nc3c(O)ccc4ccccc34)cc2[nH]1,> 100 µM,–
OCC1OC(n2ccc3cnccc32)CC1O (configuration not stated),> 100 µM,–
CCN(CC)/[N+]([O-])=N/OC,> 100 µM,–
COc1cc(/C=C2/C[C@H]3[C@@H]4CCC5=CC(=O)CC[C@]5(C)[C@H]4CC[C@]3(C)NC2=O)cc(OC)c1OC,> 100 µM,–
CCN(CC)CCC(CNc1c2ccc([N+](=O)[O-])cc2nc2cc(OC)c(OC)cc12)c1ccccc1 (configuration not stated),0.607 µM and 0.648 µM,0.13 µM and 0.113 µM
NCC(=O)Nc1ccc(-n2nc(C(F)(F)F)cc2-c2ccc3c(ccc4ccccc43)c2)cc1,2.81 µM,1.46 µM
CCN(CC)C(=O)C1=C(C)NC(C)=C(C(=O)N(CC)CC)C1,> 100 µM,–
CC(C)[C@@H]1NC(=O)[C@]2(C)CSC(=N2)c2csc(n2)CNC(=O)C[C@@H](/C=C/CCS)OC1=O,2.13 µM,0.0492 µM
Cc1cc(=O)cc2sc3cc(Cl)ccc3nc1-2,> 85.1 µM,–
CC(=O)N(/N=C\c1ccc([N+](=O)[O-])cc1)c1ccccc1,> 100 µM,–
O=c1oc2c(ccc3occc32)c(N2CCCCC2)c1-c1ccccc1,> 100 µM,–
CN(C)c1cc2c(Nc3ccc4nc(Cc5ccccc5)[nH]c4c3)ncnc2cn1,> 25 µM,14.8 µM
N#Cc1ccc(Nc2cnc3cc(N)ccc3n2)cc1,> 100 µM,–
CCOC(=O)/C(=C/c1cc(OC)ccc1OC)CC(=O)O,> 100 µM,–
O=C(/C=C\c1cccc([N+](=O)[O-])c1)c1ccccc1,37.3 µM,16.9 µM

SMILES,TGI,GI50
CC(=O)NC(ON1C(=O)COc2ccccc21)C(Cl)(Cl)Cl (configuration not stated),> 100 µM,–
Clc1ccc(N/N=C/c2ccccn2)nc1,> 100 µM,0.363 µM
NC(=O)c1ncn(C2OC(CO)C(O)C2O)n1 (configuration not stated),> 100 µM,60.1 µM
CCOP(=O)(OCC)/C(=C/c1ccccc1)CC(C)=O,> 100 µM,–
CNC(=S)NNC(=O)c1c(C)nc2sccn12,> 100 µM,–
Nc1nn(C(=O)Nc2ccc(Cc3ccccc3)cc2)c2ccc(Cl)cc12,> 100 µM,17.3 µM
CC(C)CC(=O)N1CCN(C(=O)CC(C)C)c2ccccc21,> 100 µM,–
COC1OC(C(=O)CP(=O)(OC)OC)C(OCc2ccccc2)C(OCc2ccccc2)C1OCc1ccccc1 (configuration not stated),30 µM and 30.9 µM,–
Cc1oncc1C(=O)Nc1ccc(C(F)(F)F)cc1,> 100 µM,32.7 µM
C/C(=N/NC(=S)N1CCCCCC1)c1ccccc1O,> 100 µM,–
S=c1cn[nH]c2ccc(Br)cc12,> 100 µM,–
CNC(=S)NNC1=NCCCN1,> 100 µM,–
C/C(=C/CNc1ncnc2c1ncn2CCC(=O)O)CO,> 100 µM,–
O=Cc1ncc(-c2ccc(C(F)(F)F)cc2)c(NC2CCCCCC2)n1,> 10 µM,> 10 µM
C=CC1(c2ccc(Cl)c(Cl)c2)OCCO1,> 100 µM,–
[Ce+3].[Cl-].[O-]/N=C(\c1ccccc1)c1ccccn1.[O-]/N=C(\c1ccccc1)c1ccccn1.[O-]/N=C(\c1ccccc1)c1ccccn1,> 100 µM,37.7 µM
CN(C)c1cc2c(cc1Sc1nc3c(N)nccc3n1CCNCC(C)(C)C)OCO2,> 100 µM,2.29 µM
C[C@@]12C[C@@H](c3ccccc3O1)N1CCSC1=N2,> 100 µM,–
CN(C)S(=O)(=O)n1ccnc1,> 100 µM,–
Oc1c(Cl)cc(C(c2cc(Cl)c(O)c(Cl)c2)C(c2cc(Cl)c(O)c(Cl)c2)c2cc(Cl)c(O)c(Cl)c2)cc1Cl,14.2 µM,3.52 µM
NC(=O)Cc1ccccc1Oc1nccc(-c2c(-c3ccc(F)cc3)ncn2C2CCNCC2)n1,> 25 µM,> 25 µM
O=C(CSc1nc2ccc(Cl)cc2c(=O)n1-c1ccccc1)N=Nc1c(O)[nH]c2ccc(F)cc12,12.8 µM,–
CCOC(=O)C(Cc1ccc(OC(=O)c2ccc(OC)cc2OC)cc1)NC(=O)C(F)(F)F (configuration not stated),38.6 µM,–
CCOC(=O)C(=CNC(Cc1c[nH]c2ccccc12)C(=O)OC)C(=O)OCC (configuration not stated),> 100 µM,–
CC(Br)C(=O)c1ccc2cc(Br)c3ccccc3c2c1 (configuration not stated),35.5 µM,–

SMILES,TGI,GI50
COC1=C(C)C(=O)C2C(C1=O)C(c1ccc(OC)c(OC)c1)[C@H]2C (some centres not stated),> 100 µM,–
COc1cc(-c2nn(C)nc2-c2cc3ccccc3s2)cc(OC)c1OC,> 100 µM,1.26 µM
CCOC(=O)c1c(Nc2ccccc2)sc2cccnc12,> 96.1 µM,–
Clc1ccc(-c2nc(-c3c[nH]c4ncccc34)cs2)cc1,> 100 µM,> 100 µM
CSc1sc(C)cc1-c1nsc(=O)o1,> 100 µM,–
COC(=O)C1=C(O)C(C(=O)OC)[C@]2(O)[C@H](C(=O)OC)[C@H]1C[C@@H](c1ccccc1OC)[C@H]2C(=O)OC (some centres not stated),24.1 µM,–
Cc1ccc(/C=C/C(=O)c2sc(C(N)=S)nc2C)cc1,> 100 µM,–
S=C(Nc1ccc(-c2nc3ccccc3s2)cc1)Nc1ccccn1,> 89.4 µM,30.1 µM
CN(C)C(=O)c1nnsc1NN=O,> 100 µM,–
COc1cc(/C=C2\N=C(c3ccccc3)N(c3nc4c(Cl)cc(Cl)cc4s3)C2=O)ccc1O,> 100 µM,–
CCC[CH2][Sn]([CH2]CCC)([O]C(=O)c1cc(OC)c(OC)c(OC)c1)[O]C(=O)c1cc(OC)c(OC)c(OC)c1,2.85 µM,1.45 µM
COC(OC)C1(c2ccccc2)Oc2ccccc2C1=O (configuration not stated),> 100 µM,–
CC(=O)O[C@@]12[C@@H]3O[C@@]4(O)C[C@]5(C)[C@H]6C[C@@](C(C)C)(O[C@H]5c5ccoc5)O[C@H]1[C@]6(C4)O[C@]2(O)C(C)=CC3(C)C,> 100 µM,–
C/C=C/C=C/C1=NN(c2cccc(S(=O)(=O)O)c2)C2(C1)C(Cl)C(=O)N2c1nc2ccccc2s1 (configuration not stated),39.8 µM,–
C[C@@]12CCC[C@@](C)(C(=O)O)C1CC[C@]13C=C(CO)[C@](O)(CCC12)C3 (some centres not stated),> 100 µM,> 100 µM
Cc1cc(=O)[nH]c(CNC(=O)c2cccc3ccccc23)n1,> 100 µM,–
Nn1c(-c2ccccc2Nc2ccccc2-c2n[nH]c(=S)n2N)n[nH]c1=S,> 50 µM,–
CSc1nc2nc(C)c(C)nc2c(=O)[nH]1,> 100 µM,–
CCNC(=O)Nc1ccc(-c2nc3c(c(N4CCOC[C@@H]4C)n2)CCN(C2COC2)C3)cc1,> 100 µM,0.481 µM and 0.311 µM
O=C1OC(C2Cc3cc4c(cc3C2=O)CCC4)c2ccccc21 (configuration not stated),> 100 µM,–
C=CCOC1=C2CC[C@H](O)[C@@]2(C)CCC1=O,> 100 µM,–
CC(C)(C)C1CCC2c3c([nH]c4ccccc34)C3C(=O)N(c4cccc(Cl)c4)C(=O)C3C2C1 (configuration not stated),64.2 µM,–
C[C@]1(O)CC(=O)c2c(c(-c3ccc4cc5c(c(O)c4c3O)C(=O)C[C@@](C)(O)C5)c3cccc(O)c3c2O)C1,26.6 µM,–
CCCCC(SC(=S)N(CC)CC)C(=O)Nc1nc(CC(=O)OCC)cs1 (configuration not stated),> 100 µM,> 100 µM
C=C1C(=O)O[C@H]2[C@H]1CC/C(COC(=O)NCc1c[nH]c3ccc(OC)cc13)=C\CC[C@@]1(C)O[C@@H]21,23.2 µM,11.1 µM

SMILES,TGI,GI50
CC(=O)c1cc2c3c(c1)c1cc4c(cc1c(=O)n3CC2)OCO4,> 100 µM,–
NC(N)=NS(=O)(=O)c1ccc(Nc2c3ccccc3nc3ccc(C(=O)Nc4ccc(S(N)(=O)=O)cc4)cc23)cc1,> 100 µM,–
Cn1c(=O)c(Sc2ccccc2F)cc2cnc(NC3CCOCC3)nc21,> 25 µM,> 25 µM
NNC(=O)CC(=O)Nc1ccc(C(=O)O)cc1,> 100 µM,–
CCOC(=O)N/N=C/C1=NN(C(=O)OCC)S(=O)C1C (configuration not stated),> 100 µM,–
CCN(CC)CCC(=O)c1ccc(Oc2ccc(C)cc2)cc1,> 100 µM,–
COC(=O)c1c(O)ccc2c1c1c(n2Cc2ccccn2)C(=O)c2ccccc2C1,> 100 µM,–
O=C(CC(=O)C(=O)CC(=O)OCc1ccccc1)OCc1ccccc1,> 100 µM,–
Fc1cc(C2=C[C@H](c3ccc4c(c3)OCO4)NC(=S)N2)c(Cl)cc1Cl,> 100 µM,–
O=C1C(=O)c2ccccc2C=C1[N+](=O)[O-],> 100 µM,–
C/C=C1/CN2CCC34C5=CC(=O)C(c6cc7c(cc6OC)N(C)C6=C(C(=O)OC)CC8(CC)CCCN9CCC67C98)=CC5=NC23CCC1C4C(=O)OC (configuration not stated),31.8 µM,–
O=C(O)C(F)(OC(F)(F)C(F)(F)C(F)(F)F)C(F)(F)F (configuration not stated),> 100 µM,–
O=C(Nc1cccnc1)c1cccs1,> 100 µM,> 100 µM
O=C1OCC2=C1C(c1ccccc1)c1cc3c(cc1N2CCO)CCC3 (configuration not stated),> 25 µM,0.21 µM
O=[N+]([O-])c1ccccc1S(=O)(=O)c1ccccc1[N+](=O)[O-],> 100 µM,–
CC(C)Cc1ccc(C(C)/C=C2\CCC(CN3CCOCC3)C2=O)cc1 (configuration not stated),32.5 µM,–
COc1ccccc1/C=C1\CCC(CN(C)C)C1=O (configuration not stated),31.4 µM,–
O=C(Nc1cccc(-n2cc(-c3ccncc3)c(-c3cc(O)cc(Cl)c3)n2)c1)Nc1ccc(Cl)c(Cl)c1,7.81 µM,1.78 µM
Cn1c(O)c(C=N)c(=O)n(C)c1=O,> 100 µM,–
CCC(C)[C@H]1C(=O)N=C(N)N1C(=O)OCc1ccccc1 (some centres not stated),> 100 µM,–
C/C(Sc1ccccc1)=C1/CCCN(Cc2ccccc2)C1,> 100 µM,–
S=C1CNC(=S)CN1,> 100 µM,–
O=C1OCC2=C1C(c1cccc([N+](=O)[O-])c1)c1cc3c(cc1N2CCO)CCC3 (configuration not stated),> 50 µM,0.378 µM
